{
  "source": "the supplement of paper PMC4166925",
  "note": "± gives the standard deviation of the averaged measurements. The full ranking holds about 33,000 sequences; the median of “E-score (dimensionless, -0.5 to 0.5)” is about -0.049, and the highest 2% start at about 0.37. Some of the results follow.",
  "data": [
    {"system": "T1, PmTbr T-box DNA-binding domain (GST fusion)", "T1 sequence": "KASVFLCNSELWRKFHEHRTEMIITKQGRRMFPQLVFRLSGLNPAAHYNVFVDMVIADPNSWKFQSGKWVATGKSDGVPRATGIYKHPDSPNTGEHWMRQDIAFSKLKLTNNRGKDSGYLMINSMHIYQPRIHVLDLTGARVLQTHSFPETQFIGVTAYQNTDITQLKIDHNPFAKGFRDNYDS", "assay": "PBM E-score of 8-mer (E-score (dimensionless, -0.5 to 0.5)); Tbr is Tbrain of the sea star Patiria miniata (Pm) or the sea urchin Strongylocentrotus purpuratus (Sp); higher = stronger binding preference; most listed sequences are background and not binding sites", "settings": "the construct has about 5 more residues each side", "procedure,_shortened": "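Expression of GST-fused Tbr T-box DNA-binding domains, each holding the full T-box plus roughly five flanking residues, was carried out in BL21 E. coli at 20 °C, with purification by glutathione affinity chromatography. Universal Agilent arrays made double-stranded by primer extension were incubated with the protein at 200 nM in PBS (pH 7.5), then scanned and quantified. All ungapped 8-mers were scored from probe intensities, and each received an enrichment E-score from the Universal PBM Analysis Suite, averaged over duplicate arrays.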", "values": [
      {"sequence": "CCCCAATC", "PBM E-score of 8-mer": "-0.111 ± 0.0088"},
      {"sequence": "TATCGGCA", "PBM E-score of 8-mer": "0.0555 ± 0.032"},
      {"sequence": "CACGCGGC", "PBM E-score of 8-mer": "0.0479 ± 0.054"},
      {"sequence": "CTCTGTTC", "PBM E-score of 8-mer": "0.00273 ± 0.033"},
      {"sequence": "CTAGAAAA", "PBM E-score of 8-mer": "-0.0306 ± 0.063"},
      {"sequence": "CAATACTC", "PBM E-score of 8-mer": "-0.0735 ± 0.01"},
      {"sequence": "ATGAGCTC", "PBM E-score of 8-mer": "-0.104 ± 0.0054"},
      {"sequence": "CGATGGGC", "PBM E-score of 8-mer": "-0.0763 ± 0.1"},
      {"sequence": "AAGGACAC", "PBM E-score of 8-mer": "-0.0192 ± 0.027"},
      {"sequence": "ACTGTCGC", "PBM E-score of 8-mer": "0.259 ± 0.056"},
      {"sequence": "GGTAAAAA", "PBM E-score of 8-mer": "-0.0311 ± 0.073"},
      {"sequence": "GCTAAAGA", "PBM E-score of 8-mer": "0.105 ± 0.017"},
      {"sequence": "TCTGATAA", "PBM E-score of 8-mer": "0.0772 ± 0.036"},
      {"sequence": "TATCCAAA", "PBM E-score of 8-mer": "-0.353 ± 0.065"},
      {"sequence": "GTCCTTTA", "PBM E-score of 8-mer": "-0.182 ± 0.056"},
      {"sequence": "GGCGGGAC", "PBM E-score of 8-mer": "0.0218 ± 0.01"},
      {"sequence": "ACCTCGTC", "PBM E-score of 8-mer": "0.197 ± 0.019"},
      {"sequence": "CGCGCCAG", "PBM E-score of 8-mer": "0.2 ± 0.049"},
      {"sequence": "GGCTTCGA", "PBM E-score of 8-mer": "-0.094 ± 0.0067"},
      {"sequence": "CACAAAGA", "PBM E-score of 8-mer": "-0.117 ± 0.05"},
      {"sequence": "ACGTAGAT", "PBM E-score of 8-mer": "0.0235 ± 0.01"},
      {"sequence": "AGGACCAC", "PBM E-score of 8-mer": "-0.253 ± 0.12"},
      {"sequence": "GATTCCAC", "PBM E-score of 8-mer": "-0.12153 ± 0.00011"},
      {"sequence": "GGTGGAAA", "PBM E-score of 8-mer": "0.0951 ± 0.013"},
      {"sequence": "GTGCCTCA", "PBM E-score of 8-mer": "0.0613 ± 0.045"},
      {"sequence": "GGATAATA", "PBM E-score of 8-mer": "-0.143 ± 0.061"},
      {"sequence": "GTCGCAAC", "PBM E-score of 8-mer": "0.29 ± 0.005"},
      {"sequence": "CTAACATA", "PBM E-score of 8-mer": "0.0161 ± 0.011"},
      {"sequence": "AAAGATTC", "PBM E-score of 8-mer": "-0.087 ± 0.036"},
      {"sequence": "AAGGTGAC", "PBM E-score of 8-mer": "0.426 ± 0.011"},
      {"sequence": "GGCACGGA", "PBM E-score of 8-mer": "-0.03 ± 0.015"},
      {"sequence": "CTCTTGTA", "PBM E-score of 8-mer": "-0.164 ± 0.038"},
      {"sequence": "CCTCTCTA", "PBM E-score of 8-mer": "-0.0135 ± 0.031"},
      {"sequence": "GGGTACAC", "PBM E-score of 8-mer": "-0.123 ± 0.036"},
      {"sequence": "GCGCGTGA", "PBM E-score of 8-mer": "0.322 ± 0.0044"},
      {"sequence": "AAAACCAC", "PBM E-score of 8-mer": "-0.07498 ± 0.00031"},
      {"sequence": "GACGCTTA", "PBM E-score of 8-mer": "0.0625 ± 0.044"},
      {"sequence": "CTCCATAC", "PBM E-score of 8-mer": "0.12 ± 0.032"},
      {"sequence": "ACACTAGG", "PBM E-score of 8-mer": "0.12 ± 0.0022"},
      {"sequence": "GAAGCTCC", "PBM E-score of 8-mer": "-0.342 ± 0.041"},
      {"sequence": "CATACAGC", "PBM E-score of 8-mer": "-0.223 ± 0.032"},
      {"sequence": "CCCAAGCA", "PBM E-score of 8-mer": "-0.201 ± 0.056"},
      {"sequence": "GCTCCAGC", "PBM E-score of 8-mer": "-0.226 ± 0.028"},
      {"sequence": "GGGAGCAA", "PBM E-score of 8-mer": "0.0626 ± 0.0095"},
      {"sequence": "AGTCGTAA", "PBM E-score of 8-mer": "-0.149 ± 0.011"},
      {"sequence": "GCCACGGC", "PBM E-score of 8-mer": "-0.03 ± 0.011"},
      {"sequence": "GCCGGAAA", "PBM E-score of 8-mer": "-0.184 ± 0.032"},
      {"sequence": "CTAAGGAG", "PBM E-score of 8-mer": "-0.108 ± 0.029"},
      {"sequence": "CCCGTATC", "PBM E-score of 8-mer": "0.0267 ± 0.042"},
      {"sequence": "TAGTCACA", "PBM E-score of 8-mer": "0.233 ± 0.013"},
      {"sequence": "GGTTGCAC", "PBM E-score of 8-mer": "0.164 ± 0.017"},
      {"sequence": "GAGCCTCA", "PBM E-score of 8-mer": "-0.138 ± 0.025"},
      {"sequence": "GAATCTAA", "PBM E-score of 8-mer": "-0.0385 ± 0.054"},
      {"sequence": "CATCCTAC", "PBM E-score of 8-mer": "-0.0397 ± 0.018"},
      {"sequence": "AGCCACTG", "PBM E-score of 8-mer": "-0.118 ± 0.027"},
      {"sequence": "AAAGGAAT", "PBM E-score of 8-mer": "-0.242 ± 0.034"},
      {"sequence": "AGCTGGCC", "PBM E-score of 8-mer": "-0.191 ± 0.039"},
      {"sequence": "GATAGGGC", "PBM E-score of 8-mer": "-0.0385 ± 0.05"},
      {"sequence": "GCGATTTA", "PBM E-score of 8-mer": "0.247 ± 0.0081"},
      {"sequence": "CCCCCGAA", "PBM E-score of 8-mer": "-0.3 ± 0.058"},
      {"sequence": "CTGGTTGC", "PBM E-score of 8-mer": "0.106 ± 0.066"},
      {"sequence": "CAGTAGAC", "PBM E-score of 8-mer": "-0.0988 ± 0.05"},
      {"sequence": "GAATTAAC", "PBM E-score of 8-mer": "-0.0426 ± 0.067"},
      {"sequence": "GGTGGTTA", "PBM E-score of 8-mer": "-0.0741 ± 0.0065"},
      {"sequence": "AACACAGA", "PBM E-score of 8-mer": "-0.00947 ± 0.06"},
      {"sequence": "CACGGCGC", "PBM E-score of 8-mer": "0.117 ± 0.035"},
      {"sequence": "ACGGCTAT", "PBM E-score of 8-mer": "-0.166 ± 0.019"},
      {"sequence": "AAAATTGG", "PBM E-score of 8-mer": "-0.0965 ± 0.029"},
      {"sequence": "GGGCTCGA", "PBM E-score of 8-mer": "-0.0648 ± 0.016"},
      {"sequence": "CCGTTGTC", "PBM E-score of 8-mer": "0.259 ± 0.018"},
      {"sequence": "GAGCACGC", "PBM E-score of 8-mer": "-0.126 ± 0.013"},
      {"sequence": "AAAGTCGA", "PBM E-score of 8-mer": "0.02 ± 0.017"},
      {"sequence": "ACCGTCTA", "PBM E-score of 8-mer": "-0.17 ± 0.073"},
      {"sequence": "AACACGCT", "PBM E-score of 8-mer": "0.197 ± 0.011"},
      {"sequence": "AATCATAC", "PBM E-score of 8-mer": "-0.104 ± 0.035"},
      {"sequence": "CTGTGTCC", "PBM E-score of 8-mer": "-0.12 ± 0.11"},
      {"sequence": "CTTTTCTC", "PBM E-score of 8-mer": "0.036 ± 0.017"},
      {"sequence": "ACTCTAGC", "PBM E-score of 8-mer": "0.00364 ± 0.085"},
      {"sequence": "ACTCGGTA", "PBM E-score of 8-mer": "-0.169 ± 0.11"},
      {"sequence": "AAGATCAG", "PBM E-score of 8-mer": "-0.223 ± 0.033"},
      {"sequence": "TAGCCCTA", "PBM E-score of 8-mer": "-0.307 ± 0.049"},
      {"sequence": "CCTATTCG", "PBM E-score of 8-mer": "-0.0561 ± 0.047"},
      {"sequence": "CGCGCAGC", "PBM E-score of 8-mer": "-0.0225 ± 0.046"},
      {"sequence": "CTCTGATA", "PBM E-score of 8-mer": "-0.00954 ± 0.042"},
      {"sequence": "CAAGTCTA", "PBM E-score of 8-mer": "-0.0335 ± 0.087"},
      {"sequence": "TAGGGCGA", "PBM E-score of 8-mer": "-0.0256 ± 0.13"},
      {"sequence": "TAATGAGA", "PBM E-score of 8-mer": "-0.198 ± 0.096"},
      {"sequence": "CCTGGTCC", "PBM E-score of 8-mer": "-0.173 ± 0.038"},
      {"sequence": "CCCTCCGA", "PBM E-score of 8-mer": "0.0317 ± 0.12"},
      {"sequence": "AGTGATTA", "PBM E-score of 8-mer": "0.0592 ± 0.032"},
      {"sequence": "AATCTGAC", "PBM E-score of 8-mer": "0.00476 ± 0.046"},
      {"sequence": "CATACTTA", "PBM E-score of 8-mer": "-0.105 ± 0.011"},
      {"sequence": "GGCTCTCA", "PBM E-score of 8-mer": "0.00055 ± 0.025"},
      {"sequence": "CGACTATC", "PBM E-score of 8-mer": "0.0791 ± 0.034"},
      {"sequence": "ATAGAAAT", "PBM E-score of 8-mer": "-0.0543 ± 0.0047"},
      {"sequence": "ATCCCCAA", "PBM E-score of 8-mer": "-0.227 ± 0.063"},
      {"sequence": "AGGGTGGA", "PBM E-score of 8-mer": "0.0918 ± 0.0011"},
      {"sequence": "ACTTACGA", "PBM E-score of 8-mer": "0.0556 ± 0.065"},
      {"sequence": "ATAACCTC", "PBM E-score of 8-mer": "-0.0514 ± 0.036"},
      {"sequence": "CAGTGTAG", "PBM E-score of 8-mer": "-0.0223 ± 0.072"},
      {"sequence": "ATAGTATG", "PBM E-score of 8-mer": "-0.157 ± 0.0018"},
      {"sequence": "CACCCGCC", "PBM E-score of 8-mer": "0.278 ± 0.012"},
      {"sequence": "CCCTGGCA", "PBM E-score of 8-mer": "0.102 ± 0.063"},
      {"sequence": "TAGGAGGA", "PBM E-score of 8-mer": "-0.246 ± 0.067"},
      {"sequence": "ACCTCAAA", "PBM E-score of 8-mer": "0.108 ± 0.0028"},
      {"sequence": "CGGGAAGC", "PBM E-score of 8-mer": "-0.0801 ± 0.017"},
      {"sequence": "GGAACTAC", "PBM E-score of 8-mer": "-0.00194 ± 0.017"},
      {"sequence": "GAAAAACA", "PBM E-score of 8-mer": "0.0169 ± 0.083"},
      {"sequence": "GCTTTGCA", "PBM E-score of 8-mer": "0.0382 ± 0.04"}
    ]}
  ]
}
